# Test results from the supplement of paper PMC8728848.
# This is one part of the list.
# Experiments:
# Experiment in all cases: glycan array binding signal (z-score within array); higher = stronger binding
# Conditions in all cases: glycan notation: IUPAC condensed, linker removed
# [1] = target: Fuc(a1-2)[GalNAc(a1-3)]Gal(b1-3)GlcNAc(b1-3)GalNAc
# Method in brief: (§1)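 Arrays were curated from the Consortium for Functional Glycomics database, 3228 in total, and kept only where the protein sequence was available. Binding is expressed as a within-array Z-score. This score was averaged across arrays of the same protein sequence at different concentrations or buffers and across linkers, and negative values can be read as non-binding.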
# [2] = target: Fuc(a1-2)[GalNAc(a1-3)]Gal(b1-3)GlcNAc(b1-6)GalNAc
# Method in brief: as §1
# [3] = target: Fuc(a1-2)[GalNAc(a1-3)]Gal(b1-4)Glc
# Method in brief: as §1
# [4] = target: Fuc(a1-2)[GalNAc(a1-3)]Gal(b1-4)GlcNAc
# Method in brief: as §1
# [5] = target: Fuc(a1-2)[GalNAc(a1-3)]Gal(b1-4)GlcNAc(b1-2)Man
# Method in brief: as §1
# [6] = target: Fuc(a1-2)[GalNAc(a1-3)]Gal(b1-4)GlcNAc(b1-2)Man(a1-3)[Fuc(a1-2)[GalNAc(a1-3)]Gal(b1-4)GlcNAc(b1-2)Man(a1-6)]Man(b1-4)GlcNAc(b1-4)GlcNAc
# Method in brief: as §1
# [7] = target: Fuc(a1-2)[GalNAc(a1-3)]Gal(b1-4)GlcNAc(b1-2)Man(a1-3)[Fuc(a1-2)[GalNAc(a1-3)]Gal(b1-4)GlcNAc(b1-2)Man(a1-6)]Man(b1-4)GlcNAc(b1-4)[Fuc(a1-6)]GlcNAc
# Method in brief: as §1
# [8] = target: Fuc(a1-2)[GalNAc(a1-3)]Gal(b1-4)GlcNAc(b1-3)Gal(b1-4)GlcNAc
# Method in brief: as §1
# [9] = target: Fuc(a1-2)[GalNAc(a1-3)]Gal(b1-4)GlcNAc(b1-3)Gal(b1-4)GlcNAc(b1-3)Gal(b1-4)GlcNAc
# Method in brief: as §1
# [10] = target: Fuc(a1-2)[GalNAc(a1-3)]Gal(b1-4)GlcNAc(b1-3)GalNAc
# Method in brief: as §1
# [11] = target: Fuc(a1-2)[GalNAc(a1-3)]Gal(b1-4)GlcNAc(b1-3)[Fuc(a1-2)[GalNAc(a1-3)]Gal(b1-4)GlcNAc(b1-6)]GalNAc
# Method in brief: as §1
# [12] = target: Fuc(a1-2)[GalNAc(a1-3)]Gal(b1-4)GlcNAc(b1-6)GalNAc
# Method in brief: as §1
# [13] = target: Fuc(a1-2)[GalNAc(a1-3)]Gal(b1-4)[Fuc(a1-3)]GlcNAc
# Method in brief: as §1
# [14] = target: Fuc(a1-2)[GalNAc(a1-3)]Gal(b1-4)[Fuc(a1-3)]GlcNAc(b1-3)GalNAc
# Method in brief: as §1
# [15] = target: Fuc(a1-2)[GalNAc(a1-4)]Gal(b1-4)GlcNAc
# Method in brief: as §1
# [16] = target: Fuc(a1-2)[GalNAc(b1-3)]Gal
# Method in brief: as §1
# Fuc(a1-3)GlcNAc = target: Fuc(a1-3)GlcNAc
# Method in brief: as §1
# [17] = target: Fuc(a1-3)[Gal(b1-4)]Glc6S
# Method in brief: as §1
# [18] = target: Fuc(a1-3)[Gal(b1-4)]GlcNAc
# Method in brief: as §1
# [19] = target: Fuc(a1-3)[Gal(b1-4)]GlcNAc(b1-2)Man
# Method in brief: as §1
# [20] = target: Fuc(a1-3)[Gal(b1-4)]GlcNAc(b1-2)Man(a1-3)[Fuc(a1-3)[Gal(b1-4)]GlcNAc(b1-2)Man(a1-6)]Man(b1-4)GlcNAc(b1-4)GlcNAc
# Method in brief: as §1
# [21] = target: Fuc(a1-3)[Gal(b1-4)]GlcNAc(b1-2)Man(a1-3)[Fuc(a1-3)[Gal(b1-4)]GlcNAc(b1-2)Man(a1-6)]Man(b1-4)GlcNAc(b1-4)[Fuc(a1-6)]GlcNAc
# Method in brief: as §1
# [22] = target: Fuc(a1-3)[Gal(b1-4)]GlcNAc(b1-3)Gal(b1-3)[Fuc(a1-4)]GlcNAc
# Method in brief: as §1
# [23] = target: Fuc(a1-3)[Gal(b1-4)]GlcNAc(b1-3)Gal(b1-4)[Fuc(a1-3)]GlcNAc
# Method in brief: as §1
# [24] = target: Fuc(a1-3)[Gal(b1-4)]GlcNAc(b1-3)Gal(b1-4)[Fuc(a1-3)]GlcNAc(b1-3)Gal(b1-4)[Fuc(a1-3)]GlcNAc
# Method in brief: as §1
# [25] = target: Fuc(a1-3)[Gal(b1-4)]GlcNAc(b1-3)GalNAc
# Method in brief: as §1
# [26] = target: Fuc(a1-3)[Gal(b1-4)]GlcNAc(b1-6)GalNAc
# Method in brief: as §1
# [27] = target: Fuc(a1-3)[Gal(b1-4)]GlcNAc(b1-6)[Gal(b1-3)GlcNAc(b1-3)]Gal(b1-4)Glc
# Method in brief: as §1
# [28] = target: Fuc(a1-3)[Gal(b1-4)]GlcNAc6S
# Method in brief: as §1
# [29] = target: Fuc(a1-3)[Gal3S(b1-4)]Glc
# Method in brief: as §1
# [30] = target: Fuc(a1-3)[Gal3S(b1-4)]GlcNAc
# Method in brief: as §1
# [31] = target: Fuc(a1-3)[Gal3S(b1-4)]GlcNAc6S
# Method in brief: as §1
# [32] = target: Fuc(a1-3)[GalNAc(b1-4)]GlcNAc
# Method in brief: as §1
# [33] = target: Fuc(a1-3)[GalNAc(b1-4)]GlcNAc6S
# Method in brief: as §1
# Fuc(a1-4)GlcNAc = target: Fuc(a1-4)GlcNAc
# Method in brief: as §1
# Fuc(b1-3)GlcNAc = target: Fuc(b1-3)GlcNAc
# Method in brief: as §1
# Gal(a1-2)Gal = target: Gal(a1-2)Gal
# Method in brief: as §1
binder,measurement,setting,value
"Dectin2 (Homo sapiens), Q6EIG7 (protein) MMQEQQPQSTEKRGWLSLRLWSVAGISIALLSACFIVSCVVTYHFTYGETGKRLSELHSYHSSLTCFSEGTKVPAWGCCPASWKSFGSSCYFISSEEKVWSKSEQNCVEMGAHLVVFNTEAEQNFIVQQLNESFSYFLGLSDPQGNNNWQWIDKTPYEKNVRFWHLGEPNHSAEQCASIVFWKPTGWGWNDVICETRRNSICEMNKIYL",glycan array binding signal (z-score),[1],-0.137
same,glycan array binding signal (z-score),[2],-0.205
same,glycan array binding signal (z-score),[3],-0.187
same,glycan array binding signal (z-score),[4],-0.167
same,glycan array binding signal (z-score),[5],-0.173
same,glycan array binding signal (z-score),[6],-0.077
same,glycan array binding signal (z-score),[7],0.02
same,glycan array binding signal (z-score),[8],-0.21
same,glycan array binding signal (z-score),[9],-0.134
same,glycan array binding signal (z-score),[10],-0.178
same,glycan array binding signal (z-score),[11],-0.199
same,glycan array binding signal (z-score),[12],-0.202
same,glycan array binding signal (z-score),[13],-0.078
same,glycan array binding signal (z-score),[14],-0.089
same,glycan array binding signal (z-score),[15],-0.122
same,glycan array binding signal (z-score),[16],-0.178
same,glycan array binding signal (z-score),Fuc(a1-3)GlcNAc,-0.106
same,glycan array binding signal (z-score),[17],0.164
same,glycan array binding signal (z-score),[18],-0.162
same,glycan array binding signal (z-score),[19],-0.143
same,glycan array binding signal (z-score),[20],-0.206
same,glycan array binding signal (z-score),[21],-0.117
same,glycan array binding signal (z-score),[22],0.239
same,glycan array binding signal (z-score),[23],-0.088
same,glycan array binding signal (z-score),[24],-0.165
same,glycan array binding signal (z-score),[25],-0.17
same,glycan array binding signal (z-score),[26],-0.126
same,glycan array binding signal (z-score),[27],-0.186
same,glycan array binding signal (z-score),[28],0.215
same,glycan array binding signal (z-score),[29],-0.124
same,glycan array binding signal (z-score),[30],-0.117
same,glycan array binding signal (z-score),[31],-0.149
same,glycan array binding signal (z-score),[32],-0.105
same,glycan array binding signal (z-score),[33],-0.154
same,glycan array binding signal (z-score),Fuc(a1-4)GlcNAc,-0.102
same,glycan array binding signal (z-score),Fuc(b1-3)GlcNAc,0.296
same,glycan array binding signal (z-score),Gal(a1-2)Gal,-0.154
